Laboratory results published in the supplement of paper PMC3334620.
Over roughly 33,000 sequences, “E-score (-0.5 to 0.5)” has its median near -0.01; the highest 2% begin near 0.26. The list shows a part of the results.

These sequences were tested against Ste12 (UniProt P13574) (assay: PBM E-score (8-mer binding enrichment) (E-score (-0.5 to 0.5)); higher = stronger / more preferred TF binding; most listed sequences are background and not binding sites). Conditions: protein concentration: 200 nM; construct: GST-DNA-binding domain.
Description: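 Universal 'all 10-mer' protein binding microarrays (Agilent AMADID 015681) probed with GST-tagged S. cerevisiae TFs (full-length or DBD) made by in vitro transcription/translation (PURExpress), about 100-200 nM. Bound TF was detected with fluorescent anti-GST. Each ungapped 8-mer (which stands for itself and its reverse complement) is scored by the PBM enrichment score (E-score), a modified Wilcoxon-Mann-Whitney statistic from -0.5 to +0.5, computed with the Universal PBM Analysis Suite. Scale: above 0.35 generally sequence-specific binding.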

Sequence	PBM E-score
ACTCAGAG	0.0966
TAGACATA	-0.0958
AGACTCAT	-0.0849
CAGGATGA	0.0227
AACGCTGA	-0.0103
TGTAAAAA	0.334
TACTTAAA	0.0905
CGCAGGAA	-0.0307
CCTATCAA	-0.0522
CAGCGGCG	0.0568
AAGTGTAT	-0.0551
CTCGATAC	0.155
AGCAAAAG	-0.188
CCTAGAAA	0.144
AGGTTTTA	0.163
CAATATGC	0.00177
ATCGCGTC	0.0519
ACTTGACT	-0.035
CGCTCCTA	-0.12
CGCCGCAA	0.0657
CGATTGCC	-0.0947
AGTGCACG	-0.158
CTACTTGC	-0.00958
AGAGGACG	-0.0899
CCTGCCAA	-0.22

Sequence	PBM E-score
CTATACAC	-0.165
TATCTCCA	0.129
AATCTGTC	0.00918
GTGAACAA	0.133
ACGATACA	0.0755
ACTACCCC	-0.164
AAACAGGG	0.0615
ACCCCGAA	0.158
AAGTCCTA	-0.2
AAAGACGC	-0.138
ACGCTTGC	-0.116
AGTGCTAG	-0.00517
ATCGGAGA	-0.0544
GAACGGCC	-0.0673
AACTAGCT	0.0268
ATGCGTTC	-0.0191
CCGCCGTA	0.152
CTGTGACC	-0.0311
GCGCCTAC	0.158
CCCGTGGA	-0.18
GAGGAACA	0.00671
CCCCCCAA	-0.166
ATTACTTG	0.158
ATGCGCTG	-0.12
ACACGCAT	0.00268

Sequence	PBM E-score
CACCAAAC	0.15
GATCCTTA	0.0567
AATACGGT	0.0215
GAACTCTC	-0.136
AGAAGGCG	-0.0855
CTGGATCC	-0.112
GGGTGGGA	0.319
ACCAGTTG	-0.145
CCCGGTAA	0.0211
ACTACTAA	0.0158
AATCTTTA	0.2
TCCCTGAA	0.0767
CTAGTCTA	-0.0753
AAATTCGT	0.248
AACTCTAT	0.169
CCTTGGTC	-0.181
CTATAGAG	-0.155
CGCCACGC	-0.167
AAAAGCTC	-0.193
CGTGTAAA	-0.226
TAGCAAAA	0.113
GTGACCAC	-0.123
CCTAGACC	-0.0369
CTACCATA	-0.0779
AACCAGGA	0.0519

Sequence	PBM E-score
AATCGTAA	0.21
CCAGCATC	0.0222
CATGAATC	0.069
GAGACCGC	-0.218
CGCTTGTC	-0.119
GTGCTGTA	-0.13
CTGATCTA	0.131
AGCAGCGG	-0.18
ACCGCTCT	-0.0418
CTACCCCA	-0.0909
GGAAGACA	-0.0618
AATACCAT	-0.0165
TAGTCATA	-0.00845
AAAAGGTA	-0.0201
ACTCCGAA	-0.0771
CATGTAAA	0.027
ACTATTAG	0.104
ATAAAGAA	0.184
AACACTGC	0.0761
ACTACGGA	-0.151
ATTCAAGC	0.131
TCTGGTCA	0.0678
CAATCATA	0.0856
TAAGGGCA	-0.023
ACCAGGGC	-0.241

Sequence	PBM E-score
ATCGGTAG	-0.0427
AGGAGTGG	-0.0209
CACTAGGC	-0.0023
CACCAAAA	0.216
CCAATGGC	-0.168
AGTCAGCC	-0.0536
GATAAAAC	0.327
TACCCGGA	-0.0492
CCGAGTCA	0.0594
AGCCACGC	-0.12
CAAGGGCC	-0.209
ATAGTTTG	0.171
AAGTTCCA	0.00201
AAAACCCC	0.0914
TCTACACA	-0.0878
AATCCTAG	-0.0895
GCCTTGAA	-0.112
GCGGTTTA	0.13
ATGCGATA	-0.171
ATGCGAGG	-0.0381
CCCGCAGA	0.0537
TCCCCCCA	-0.228
CAAATGAA	0.238
AGCTAGAA	-0.0198
AGCTGAGA	-0.0688

Sequence	PBM E-score
GGACGACC	-0.236
CAGCAACG	0.0828
AAACGTTC	0.211
ATGGCTCC	-0.0743
CCCGGTCG	-0.0926
CCGCGACC	-0.0436
GAGGCTCC	0.0321
TAAAGTTA	0.168
AAATTGCC	0.0442
ACCGTTGC	-0.0885
TACGGTCA	-0.0675
AGGTTGCG	-0.0546
CGAGCTAC	-0.0785
CATTAATC	0.164
GGAGGTCA	-0.171
AGGACCAT	-0.258
GATCATAA	0.0311
AAACATAC	0.241
AGTCCTAC	-0.239
ATGCGATC	-0.0459
CCTACGGC	-0.216
CACGACTG	-0.0339
TCGCGGCA	-0.122
ACCATACT	0.0935
CGACTCCC	-0.0558

Sequence	PBM E-score
AATTATAA	0.144
TACCTTGA	0.0945
ATACCGAT	-0.123
TAAGAAGA	0.0379
AAAGATGC	0.105
ATGAAAGG	0.0401
GCGAACCA	-0.0603
CCACGCAG	-0.0584
GGAGCCTA	-0.0584
CATAAGAA	0.22
GAGGCGCA	-0.0727
AAGTGCGC	0.0467
GTATAAAC	0.184
GAAGACCC	-0.163
TAAATGGA	0.0785
CCCAAATA	0.106
CTAATAGC	-0.27
AAATAGGC	0.104
ATGTCAAG	0.0511
AGTATGGG	-0.0937
ATAAGAGA	0.212
GTGAAATA	0.169
AACTTCAA	0.0648
ATAAAACC	0.294
CTACGCGA	-0.165

Sequence	PBM E-score
ATACATAG	0.0394
CATGACAG	0.00241
AAGCGAGC	-0.0151
TGGACCCA	-0.115
AACCAATC	0.259
GCAAGCGC	-0.0054
AAATGAGT	0.0197
ACGAAAGT	0.143
GGACACCC	-0.24
GGAAAGTA	0.146
AACTGTGA	0.135
CCCGTCAG	-0.0481
ACCCCTCA	0.0822
TGACAAAA	0.192
TGCGCCCA	-0.0421
TCACGGGA	-0.00635
AGATACAT	0.00257
CATCGCAA	-0.117
GGACAACA	-0.152
ACCTTCGA	-0.0218
ACACGACT	-0.00217
GAACCTGA	0.176
CAGCTTAA	-0.148
CCAAATTC	0.0956
ATTGTAGG	0.166

Sequence	PBM E-score
CCCTGGAG	-0.00232
AGGGGACA	-0.0929
CTATATTA	0.159
ATGACCCA	-0.181
CCCATAGC	-0.0521
CCTACCTC	0.0745
CTACTGAA	0.125
TACTTCAA	0.0645
CGGGCAAG	-0.0454
GTCGGGAA	0.126
CCCCCGTA	-0.262
GGTGGCAA	-0.151
AGAGTTGG	0.0179
CAACGTAA	0.0359
ATAATTGC	0.112
CGATAAGA	-0.083
CGTCTGAG	-0.11
CAAGGTAC	-0.00631
CATGTCTC	0.0391
